Test results: PubChem BioAssay AID1963959 (Molecular Pharmacology Branch, DTP, NCI, 2024)
A number of entries come with more than one value. They are shown here; other results are not. There may be further records. Results that share an entry are repeats (runs, samples, wells, individuals or studies). Marks such as (2×) say how often a value occurs here.

Test system: T-47D spheroids with HUVEC/MSC, viability
Test: Anticancer human tumor T-47D cell line growth inhibition [PI3K];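 further: spheroids exposed to agents for seven days before reading; percent of DMSO vehicle control luminescence so 100% = untreated growth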
Details: stronger effect = lower value
Source text: Combinatorial screen of targeted agents with the PI3K inhibitors inavolisib, alpelisib, duvelisib, and copanlisib in multi-cell type tumor spheroids
A high-throughput screen of multi-cell type tumor spheroids was designed to identify active combinations of targeted small molecules and PI3K pathway inhibitors. Complex spheroids include a stromal component modeled by human endothelial cells (HUVEC) and fibroblasts modeled by human mesenchymal stem cells (MSCs). The concentration ranges selected for each drug and investigational agent were based upon clinically achievable concentrations if the clinical Cmax of the agent was known.
Compounds. The drugs and investigational agents: inavolisib (NSC800729), alpelisib (NSC765974), duvelisib (NSC772469), copanlisib (NSC816437), ipatasertib (NSC767898), afuresertib (NSC778305), talazoparib (NSC767125), sapanisertib (NSC764658), selumetinib (NSC741078), tovorafenib (DAY101, NSC766906), vemurafenib (NSC761431), ravoxertinib (NSC781343), sotorasib (NSC818433), MRTX1133 (NSC 836407), abemaciclib (NSC 768073), palbociclib (NSC758247), venetoclax (NSC 766270), SY5609 (NSC837396), enzalutamide (NSC755605), and darolutamide (NSC825331), were obtained from the National Cancer Institute (NCI) Developmental Therapeutics Program Chemical Repository. The FDA-approved anticancer drug set is available from the NCI Developmental Therapeutics Program. […] The stock solutions were prepared in dimethyl sulfoxide (DMSO, Sigma-Aldrich, St. Louis, MO, cat. D2650) at 800-fold the tested concentration and stored at -70 degrees C prior to their use. All drugs and investigational agents were tested over a range starting from a high concentration at or near the clinical Cmax and decreasing in half-log increments. If the clinical Cmax for an agent had not been determined, the highest concentration tested was 10 microM.
Cell Culture. All cells were maintained in an incubator at 37 degrees C and 5% CO2 with 95% humidity. The PDC lines were cultured according to standard operating procedures established by the NCI PDMR (https://pdmr.cancer.gov/sops/default.htm). All PDCs were thawed and cultured in Matrigel-coated flasks prepared with a working solution of 1X Ham's F-12 nutrient mix, without supplementation (Invitrogen, Waltham, MA, cat. 11765054), 100 U/mL penicillin-streptomycin (Invitrogen, cat. 15140122), and 2.5% Matrigel (Corning Inc., Corning, NY, cat. 354248) for the first three passages. The 354836-022-R-J1-PDC, 475296-252-R-J1-PDC, and 997726-040-R-J2-PDC lines were cultured in 6A media, which includes advanced DMEM/F-12 (Thermo Fisher Scientific, cat. 12634028), 10 mM HEPES (Thermo Fisher Scientific, cat. 15630080), 1X GlutaMAX supplement (Thermo Fisher Scientific, cat. 35050061), 0.1 mg/mL primocin (InvivoGen, San Diego, CA, cat. ant-pm-2), 10% defined fetal bovine serum, heat inactivated (HyClone Laboratories Inc., Logan, UT, cat. SH30070.03HI), 50% L-WRN conditioned media (ATCC, cat. CRL-3276), 1.25 mM N-Acetyl-L-cysteine (Sigma-Aldrich, cat. A9165), 10 mM nicotinamide (Sigma-Aldrich, cat. N0636), 1X B-27 supplement (Thermo Fisher Scientific, cat. 17504044), 1X N-2 supplement (Thermo Fisher Scientific, cat. 17502048), and 10 microM Y-27632 dihydrochloride (Tocris Bioscience, Bristol, United Kingdom, cat. 1254). The 624824-186-R-J2-PDC line was cultured in 6C/Colon 1B media, which includes all 6A media components plus 50 ng/mL human EGF recombinant protein (Thermo Fisher Scientific, cat. PHG0311). […]

CC(C)n1nc(-c2ccc3oc(N)nc3c2)c2c(N)ncnc21
viability, T/C (compound alone 0.01 µM): 113, 105, 87.5, 93.1%

COc1c(OCCCN2CCOCC2)ccc2c3n(c(=NC(=O)c4cnc(N)nc4)nc12)CCN3
viability, T/C (compound alone 0.00316 µM): 77.7, 86.8, 88.7, 80.4, 81.3, 93.6, 92.5, 103%

CC1(C)CCC(CN2CCN(c3ccc(C(=O)NS(=O)(=O)c4ccc(NCC5CCOCC5)c([N+](=O)[O-])c4)c(Oc4cnc5[nH]ccc5c4)c3)CC2)=C(c2ccc(Cl)cc2)C1
viability, T/C (compound alone 1 µM): 97.8, 90.9, 105, 75.7%
viability, T/C (compound alone 3.16 µM): 89.7, 71, 83.5, 108%
viability, T/C (compound alone 10 µM): 82, 57.1, 67.3, 97.1%

CC(Nc1ncnc2nc[nH]c12)c1cc2cccc(Cl)c2c(=O)n1-c1ccccc1 (stereo not drawn)
viability, T/C (compound alone 0.1 µM): 82.5, 100, 112, 97, 91.5, 109, 105, 90%
viability, T/C (compound alone 1 µM): 99.6, 112, 92.4, 93.2, 100, 110, 117, 87.5%
viability, T/C (compound alone 3.16 µM): 96.8, 107, 84.1, 95.8, 120, 97.1, 105, 84.8%
viability, T/C (compound alone 10 µM): 97.4, 91.8 (2×), 90.4, 93, 104, 85.8, 77%

Cn1nccc1Nc1nccc(-c2ccn(C(CO)c3ccc(Cl)c(F)c3)c(=O)c2)n1 (stereo not drawn)
viability, T/C (compound alone 1 µM): 121, 105, 101, 87%

C#Cc1c(F)ccc2cc(O)cc(-c3ncc4c(N5CC6CCC(C5)N6)nc(OCC56CCCN5CC(F)C6)nc4c3F)c12 (stereo not drawn)
viability, T/C (compound alone 0.0316 µM): 86.7, 89.7, 108, 112%
viability, T/C (compound alone 0.316 µM): 80.2, 101, 87.4, 107%
viability, T/C (compound alone 1 µM): 93, 96.2, 112, 119%

CCCS(=O)(=O)Nc1ccc(F)c(C(=O)c2c[nH]c3ncc(-c4ccc(Cl)cc4)cc23)c1F
viability, T/C (compound alone 3.16 µM): 97.9, 73.6, 100, 85.5%

Cn1ncnc1[C@H]1c2n[nH]c(=O)c3cc(F)cc(c23)N[C@@H]1c1ccc(F)cc1
viability, T/C (compound alone 0.00316 µM): 103, 57.2, 94.7, 120%
viability, T/C (compound alone 0.1 µM): 95.3, 72, 87.4, 116%

C[C@@H](NC(=O)c1ncnc(N)c1Cl)c1ncc(C(=O)Nc2cc(C(F)(F)F)c(Cl)cn2)s1
viability, T/C (compound alone 0.1 µM): 105, 97.5, 78.8, 76.6%
viability, T/C (compound alone 1 µM): 83.2, 107, 111, 97.1%

Cn1ncc(Cl)c1-c1cc(C(=O)NC(CN)Cc2cccc(F)c2)sc1Cl (stereo not drawn)
viability, T/C (compound alone 0.1 µM): 71.4, 93.4, 94.9, 98%

Cn1cnc2c(F)c(Nc3ccc(Br)cc3Cl)c(C(=O)NOCCO)cc21
viability, T/C (compound alone 0.03 µM): 99.5, 105, 77.8, 99%

C=CC(=O)N1CCN(c2nc(=O)n(-c3c(C)ccnc3C(C)C)c3nc(-c4c(O)cccc4F)c(F)cc23)C(C)C1 (stereo not drawn)
viability, T/C (compound alone 0.316 µM): 95.3, 98, 79.8, 108%
viability, T/C (compound alone 3.16 µM): 98.4, 88, 99.4, 124%
viability, T/C (compound alone 10 µM): 104, 85.7, 108, 133%

Cc1nc(NC(=O)N2CCCC2C(N)=O)sc1-c1ccnc(C(C)(C)C(F)(F)F)c1 (stereo not drawn)
viability, T/C (compound alone 0.316 µM): 97.7, 103, 107, 98.2, 112, 85.7, 76.3, 97.1%

CC(=O)c1c(C)c2cnc(Nc3ccc(N4CCNCC4)cn3)nc2n(C2CCCC2)c1=O
viability, T/C (compound alone 0.00316 µM): 76.7, 82.3, 89.2, 104%
viability, T/C (compound alone 0.01 µM): 76.4, 103, 72.7, 104%

CC(Nc1ccc2c(c1)OCCn1cc(N3C(=O)OCC3C(F)F)nc1-2)C(N)=O (stereo not drawn)
viability, T/C (compound alone 0.01 µM): 93.2, 98.5, 74.1, 101, 98.9, 99.7, 91.1, 87.1%
viability, T/C (compound alone 0.1 µM): 98, 103, 67.4, 92.9, 93.2, 95.6, 99.8, 90.1%
